# Experimental data taken from publication PMC12136788.
# This is one part of the list.
# T1: UNK ZnF1-3 (human, UniProt Q9C0B0 31-174)
# T1 sequence: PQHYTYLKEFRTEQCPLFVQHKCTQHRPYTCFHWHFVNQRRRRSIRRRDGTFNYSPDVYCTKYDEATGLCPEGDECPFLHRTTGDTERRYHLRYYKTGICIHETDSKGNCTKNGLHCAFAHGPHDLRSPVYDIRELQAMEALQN
# B1: 117016693_117017702_1975_3pUTR_ENSMUSG00000020823_ENSMUST00000090433|mouse|control|control (ssRNA)
# RNA: GGGAGUUCUACAGUCCGACGAUCAGCCUGGCCACCUGGUCACAUGGGACCCCUGCACGCUCUCUCCUUCUUUGCAGAUUAGAGGAGACUCCACCAUGCUAUAGUCCCGGCCCAGCUGCCAGACUUUGUCUAUCAGCUGCACGUCAACAGAGGAUUGAGCAUCA
# B2: chr7:141450121:141450122:+_ENSG00000106028_ENST00000265304|hu_mus|hu_hu_hu_mus_True|1_8 (ssRNA)
# RNA: GGGAGUUCUACAGUCCGACGAUCUCAUCCGUUCUAUGCCUUUUCUUUUGUCUGGUCACUCAGAAAUAUAAUGUUAUCAGCUAUGAUUGUUGUUGCUUGCCGCCUCACAUUGUUUUUAUCCAUGUACUCACCAUAGUCUAUUUUCAACAGAGGAUUGAGCAUCA
# B3: chr7:140404665:140404666:+_ENSG00000090266_ENST00000247866|hu_hu|motif|central (ssRNA)
# RNA: GGGAGUUCUACAGUCCGACGAUCCUUGUACAGAGUGAGGCUGAGUCUACACCUUCAGUCUUCAUCAUCAGGAGGGAUACCGGAUUCUUCAUCUGUCCACUGGGAAGGAUCAGGAUACGGAAAGUGACCCAGCACCUCUUCUGACAACAGAGGAUUGAGCAUCA
# B4: chr11:23185130:23185131:+_ENSMUSG00000020290_ENSMUST00000020538|mus_mus|FALSE|FALSE (ssRNA)
# RNA: GGGAGUUCUACAGUCCGACGAUCGAACGGCAUUACUUCUCCAACUUGAACCUGAACAAAAUGCCUACGGCAUUUUUGAGCUAUUUUAAUAAAUGUGUCACAAGCCAUAUCCUGGACUCCAUCAUGGGUCUCAUGCAUGAAUUCCAACAGAGGAUUGAGCAUCA
# B5: chr10:57206289:57206290:+_ENSMUSG00000019878_ENSMUST00000079833|mus_hu|motif|central (ssRNA)
# RNA: GGGAGUUCUACAGUCCGACGAUCGCCGGCACGUUCGAACUCUGCUUCAUUGUUAACGCGGCGCAGGGAUUCCAAAUUCGGCACCCGAACGCGGUGGUAGCGGCGGCGGCAGCUACGGCAGCAGCUCCCCGAGAACGCCCACAACAACAGAGGAUUGAGCAUCA
# B6: chr9:24234919:24234920:-_ENSMUSG00000043067_ENSMUST00000142064|mus_hu|motif|central (ssRNA)
# RNA: GGGAGUUCUACAGUCCGACGAUCGUAAACCAGCUCUCCAUGAUCAAACUGGUGUUUUCUUACAUGUGUCUGUUGUUUAGCGGAGACACCCCACAUAUCACUAAUAAUCUUUCUAACAAUAGCAACAAACACUACAAGAACAACCAACAGAGGAUUGAGCAUCA
# B7: chr6:30809960:30809961:-_ENSMUSG00000025607_ENSMUST00000048774|mus_mus|FALSE|FALSE (ssRNA)
# RNA: GGGAGUUCUACAGUCCGACGAUCACUUGAUGCAGCUUCUUGGGCUUCAUUUAUCCAUCGUUUAACCACAUCAUAGCUUAUCUUCAUCAUGUGUAAGGAAGAGACCAGCGCUGAGCUGGCUACACUGGAUACUUUAUCCACAAUCAACAGAGGAUUGAGCAUCA
# B8: 46326924_46327987_897_CDS_ENSG00000139218_ENST00000369367|human|control|control (ssRNA)
# RNA: GGGAGUUCUACAGUCCGACGAUCAGGUAAUGUAUCAGGAAACCAUGACAAUUCCAGUUCAUGUCUCUUCUGCCUAAUCAAUGCACUGAUUUCACUGGCUUCUAUAAAUUCUGUACAAUAAGCUCUAUAGGUAAAGGAAGAUUCCAACAGAGGAUUGAGCAUCA
# B9: chr10:33190432:33190433:-_ENSG00000150093_ENST00000302278|hu_mus|hu_hu_hu_mus_True|28_28 (ssRNA)
# RNA: GGGAGUUCUACAGUCCGACGAUCUACAUUUUCCAAACCUGCAUGUGAAUAAAACCCUGGCCACAGAGCCCCAAAACUACCCUACUGUGACUAAGAUGCUGCUGCUGUUGCAUUCAGGUUGCAAAAUCCGCCUGAGUAGGAUUCCAACAGAGGAUUGAGCAUCA
# B10: chr3:58389886:58389887:+_ENSMUSG00000075700_ENSMUST00000107924|mus_mus|motif|central (ssRNA)
# RNA: GGGAGUUCUACAGUCCGACGAUCUUUGCCAACAAUUAUUAAGCCUAUUAAUACUAGUUUGAAGACUGACAGGAAAGAUGCGGUGUGUCUAUAAAUUGGUUGAGGGAGAUAAUUCUCGCCUUCAAUGCGGAUGUCUGGAUACCGCAACAGAGGAUUGAGCAUCA
# B11: chr4:140556289:140556290:+_ENSMUSG00000036622_ENSMUST00000037055|mus_mus|motif|central (ssRNA)
# RNA: GGGAGUUCUACAGUCCGACGAUCGAUGGAGCUCACCAGGCCCCCUUUGGCUGUGCAGAACCCUGUCCGAGUCACCACUGCGGGCACACGGGGUCCCACGUAGGCUCGGGCCUGCAGAAUGAGGGUGCCACAGAAGAGGGUGUGCAACAGAGGAUUGAGCAUCA
# B12: chr8:30040655:30040656:+_ENSG00000104671_ENST00000221114|hu_hu|FALSE|FALSE (ssRNA)
# RNA: GGGAGUUCUACAGUCCGACGAUCUUAUCUUCAUGUUAUACACUGUUCUUAGUUCUUUACUGGAGUUGAGCUUCCUUUCAUAGUCUUCUUUAGGUGGUGGUAAUUUGGCAAGAUUUUCAUCAAGAAAUCCAGCUGUAGUGUCUGCAACAGAGGAUUGAGCAUCA
# B13: chr7:141438946:141438947:+_ENSG00000106028_ENST00000265304|hu_mus|hu_hu_hu_mus_True|8_108 (ssRNA)
# RNA: GGGAGUUCUACAGUCCGACGAUCGACUACCUGUAAUUAACACAGGUCUUCGAAACAUGGCUUCUGUUUUUCUUACAACCUAAUCUUUAGGCUUUUCCUAAAGGAAAGAAAGAAAAGAGAAAAAUGAGCAGGGGAUCAACUACACAACAGAGGAUUGAGCAUCA
# B14: chr8:40069188:40069189:+_ENSMUSG00000039530_ENSMUST00000167992|mus_mus|FALSE|FALSE (ssRNA)
# RNA: GGGAGUUCUACAGUCCGACGAUCCUUCUGUCCGCCCCCGAGCUGGAUGCAGAGCAGCAGCAGCAAGAGGAGGAAGGGAAAGCUACCAGUAGGCAGGUAGCGCAACCGGCGGCCCGCCUGUCUCCGGCGUGAAGGAGCGGCCCUCAACAGAGGAUUGAGCAUCA
# B15: chr6:83912051:83912052:+_ENSMUSG00000030016_ENSMUST00000032088|mus_mus|motif|central (ssRNA)
# RNA: GGGAGUUCUACAGUCCGACGAUCUGCCUUUUUAUGAGAUGAUAAAACCAAAAUGUCCUUCAAAGCACCAAAUGGUUUUGCGGAGUUGUAAAUUUCUUCUGUAGAAUAUCCUUUGUUAGGCAAAUUAGAAAUAAAUACUACACUCAACAGAGGAUUGAGCAUCA
# B16: 27507010_27508669_794_3pUTR_ENSG00000107897_ENST00000396271|human|control|control (ssRNA)
# RNA: GGGAGUUCUACAGUCCGACGAUCUGUCAUUCUGUAUAUCCUGAACAAAGCCAUCUUUAUCAUAGCCAUUAGUGACAAUGACUUCCAAAUUCUUAUGGUCUGCUGACUUCUUCAUCAUUUUCUUAUCAUUAUCACUUUGUUCUGCAACAGAGGAUUGAGCAUCA
# B17: chr2:47388980:47388981:-_ENSG00000143933_ENST00000272298|hu_mus|hu_hu_hu_mus_True|8_8 (ssRNA)
# RNA: GGGAGUUCUACAGUCCGACGAUCUUCAUCUGUUAACUUCUCGCCAAGGUUUGUCAUCACAUGGCGAAGCUCUGCUGCACUAAUAUAGCCAUUGCCAUCCUUAUCAAACACACGGAAUGCUUCUCUAAUUUCUUCUUCACUGUCCAACAGAGGAUUGAGCAUCA
# B18: 110453126_110453246_3646_CDS_ENSMUSG00000044791_ENSMUST00000153838|mouse|control|control (ssRNA)
# RNA: GGGAGUUCUACAGUCCGACGAUCCAGCUCUGUUUUUCCUAGUCUACUACUAUCUGGCCGAUUAGAGAAAAUCAUCUGCUGCCGAGACUUAUUUGGGAGAUCUUCAAAAUCGUCAGAAUAAACUGGUAGCUCUUGUGGCCUAGACAACAGAGGAUUGAGCAUCA
# B19: chr8:109229674:109229675:-_ENSG00000104408_ENST00000220849|hu_mus|FALSE|FALSE (ssRNA)
# RNA: GGGAGUUCUACAGUCCGACGAUCGUUGGUUAUGACGGCAGUAGUCAAAUAGCGUAGAAUAUGUGGACACAUUGUCUGAAUUGCAUUAAGAUACUGUGGUUGGUAAAGGAAGAGAUCAAUAAUGUUAUCACGGCCCUUUGGAUGCAACAGAGGAUUGAGCAUCA
# B20: 27877177_27877297_2358_CDS_ENSG00000126705_ENST00000374011|human|control|control (ssRNA)
# RNA: GGGAGUUCUACAGUCCGACGAUCUACGGGGAUCUUGGCCAUCUUCACCACCAUGCGCCGCACGCCCCGGCACUUGCCUUUGCGGGUAGAGACCACUGGGGUCUGGGAAGAUUCCGGCUUCAACUCUGGGACUGAGACCGGGCCCAACAGAGGAUUGAGCAUCA
# B21: chr13:100193941:100193942:-_ENSMUSG00000052727_ENSMUST00000064762|mus_hu|FALSE|FALSE (ssRNA)
# RNA: GGGAGUUCUACAGUCCGACGAUCAUUUUCUCUAAACUCUACAUGAACCGUAGGAGUUGAGAAUUCAUUUGUUUUCAAUGUACUAUUUCUUUUAUUUUUUUUUUCCAGAAAAGAAAAUCCCAAAGCAAAUUUGUGCUAGGGUUCCAACAGAGGAUUGAGCAUCA
# B22: chr17:40995140:40995141:+_ENSG00000131467_ENST00000293362|hu_mus|FALSE|FALSE (ssRNA)
# RNA: GGGAGUUCUACAGUCCGACGAUCCAUGGUAAAAGAAUUUUACAUUACAAUCCAAGGAAGGAGGGGCAGAGGGACAAUCAAACAAAAGGAAAACCAAGAAACACAUGGUGGGGGGAGGGGAGGGGCUCAGCUGGAAGGGAUCUGCAACAGAGGAUUGAGCAUCA
# Target: T1, UNK ZnF1-3
# Test: nsRBNS (natural sequence RNA bind-n-seq); RBNS binding buffer (assumed for nsRBNS): 25 mM Tris pH 7.5, 150 mM KCl, 3 mM MgCl2, 0.01% Triton X-100, 500 ug/ml BSA, 20 U/ml SUPERase-In, 4 C; UNK is unkempt and MSI1 is Musashi-1; names of the RNAs are library labels; protein concentration not given here; high values mean tight binding
row,Binder,binding signal
1,B1,0.436 enrichment R
2,B2,0.406 enrichment R
3,B3,0.558 enrichment R
4,B4,1.23 enrichment R
5,B5,1.19 enrichment R
6,B6,1.09 enrichment R
7,B7,0.576 enrichment R
8,B8,0.879 enrichment R
9,B9,1.14 enrichment R
10,B10,1.32 enrichment R
11,B11,0.717 enrichment R
12,B12,1.09 enrichment R
13,B13,0.487 enrichment R
14,B14,0.62 enrichment R
15,B15,0.677 enrichment R
16,B16,0.451 enrichment R
17,B17,0.74 enrichment R
18,B18,0.519 enrichment R
19,B19,1.54 enrichment R
20,B20,1.03 enrichment R
21,B21,0.796 enrichment R
22,B22,2.36 enrichment R
